The results in this text go back to ChEMBL document CHEMBL4888484, “Replenishing the malaria drug discovery pipeline: Screening and hit evaluation of the MMV Hit Generation Library 1 (HGL1) against asexual blood stage Plasmodium falciparum ,using a nano luciferase reporter read-out” (2022).

Out of some 150,000 compounds screened, about 540 (0.36%) showed an effect of 50% or more. Some of the results follow.

In this test the test system is Plasmodium falciparum. The test is described as follows: Primary screen in NF54 nanoGlo assay, in single point, at 2uM, 72h; a lower Z score goes with more inhibition. The test is classed as functional, Erythrocyte. As to conditions: timepoint 72 hour.
Broadly, the % Inhibition is the drop in the measured response relative to a control, in per cent. In the case of `Cc1ccc(C(=O)N2CC[C@](C)(O)[C@H](Cc3ccccc3)C2)cc1C`, the “% Inhibition” value is 1% and the Z score is -0.14.
Taken in the same sequence, the figures for `CC(C)(C)OCc1cc(C(=O)N2CCCCC[C@H]2c2ncon2)no1` were 0% and -0.05.
The like results for `COc1ccc(C)cc1NC(=O)Cn1c(C)cc(C)c1-c1nc(C2CC2)no1` were, in that order, 3% and -0.32.
For `CO[C@@H](C)c1nc(CN=C(N)N2CCCCCC2)cs1`, the “% Inhibition” value is -5% and the Z score is on record as 0.5.
Taken in the same sequence, the figures for `CCCCNC(=O)CN(C)C(=O)c1ncoc1C1CC1` were -8% and 1.44.
Taken in the same sequence, the figures for `O=C(c1ccccc1C(F)(F)F)N1Cc2cccnc2C1` were -7% and 0.83.
Taken in the same sequence, the figures for `Cc1ccc([C@@H]2CC(c3cn(-c4ccccc4)nc3-c3ccccc3)=NN2S(C)(=O)=O)cc1` were -2% and 0.25.
As to `O=c1c2c(nc(N3CCOCC3)n1C1CCCCC1)CCC2`, the “% Inhibition” value is listed as -28% and the Z score was 3.27.
Taken in the same sequence, the figures for `CCOc1ccc(CN2CCC(C3CCCO3)C2C(=O)O)cc1` (stereo unspecified) were -8% and 1.08.
Consider `COc1cccc(OC)c1-c1ccccc1-c1nnc(C)o1`, for which the “% Inhibition” value is -1% and the Z score is 0.23.
As for `COc1ncc(CN2CCC[C@H](CNC(=O)NC(C)(C)C)C2)cn1`, the “% Inhibition” value is listed as -3% and the Z score was determined as 0.57.
As for `Cc1cnccc1CCNCc1nc2cc(F)ccc2o1`, the “% Inhibition” value is -13% and the Z score stood at 1.8.
The like results for `CC(C)n1ccc2c(NC(=O)C[C@@H]3NC(=O)c4ccccc4N=C3O)cccc21` were, in that order, -3% and 0.52.
Taken in the same sequence, the figures for `O=C(Nc1ccc2c(c1)OCCO2)c1ccc(N2C(=O)CCS2(=O)=O)cc1Cl` were -3% and 0.42.
For `Cc1nscc1C(=O)N(C)c1cccnc1N1CCCC1`, the “% Inhibition” value came out at 14% and the Z score was -1.28.
Regarding `COCCN(CCN(C)C)C(=O)c1ccc(Cl)c(Cl)c1`, the “% Inhibition” value was -5% and the Z score was found to be 0.71.
As to `O=C(C1CCCCCC1)N1CCN(c2ncccn2)[C@H]2CS(=O)(=O)C[C@H]21`, the “% Inhibition” value is on record as 7% and the Z score is -1.03.
With `Cc1cc(C)c2c3ccccc3n(CCNC(=O)CC(C)(C)CC(=O)Nc3ccc4c(c3)OCO4)c2n1`, the “% Inhibition” value turned out to be 9% and the Z score is reported as -1.15.
For `Cc1ccc(C)c([C@H](C)NCc2ccn(C)c(=O)c2)c1`, the “% Inhibition” value is -5% and the Z score came out at 0.7.
Taken in the same sequence, the figures for `CN(Cc1nccn1C)C(=O)c1c[nH]nc1-c1ccccc1` were -7% and 0.98.
The like results for `FC(F)(F)c1cc(C2CC2)nc2cc(-c3nnc(-c4ccncc4)o3)nn12` were, in that order, -46% and 5.36.
For `CC(C)N1C(=O)[C@H](Cc2ccccc2)NC12CCN(C(=O)c1ccccc1Cl)CC2`, the “% Inhibition” value is given as -8% and the Z score stood at 0.78.
`COC(C)[C@H](C)NC(=O)NCCc1ccc(C)nc1` (stereo partly specified): the “% Inhibition” value is reported as -8% and the Z score amounted to 0.9.
Taken in the same sequence, the figures for `C[C@](NCc1nnc(-c2ccco2)o1)(C(N)=O)c1cccc(Cl)c1` were -9% and 1.18.
Taken in the same sequence, the figures for `Cc1ccc2c(c1)O[C@@H](C)CN2S(=O)(=O)c1cccnc1` were -1% and 0.08.
`Cc1nn(C)c(-n2cccn2)c1C(=O)N1CCN(c2ncccn2)CC1`: the “% Inhibition” value is reported as -13% and the Z score was found to be 1.57.
Taken in the same sequence, the figures for `O=C(Nc1cccc(Cl)c1)Nc1c(-c2ccc(C(F)(F)F)cc2)n[nH]c1C1CC1` were -12% and 1.21.
With `Cc1n[nH]c(C)c1CCC(=O)N1C[C@@H]2CC[C@H]1CN(S(=O)(=O)N(C)C)C2`, the “% Inhibition” value is listed as -2% and the Z score is recorded as 0.28.
The like results for `C[C@@H](c1ccncc1)N1CCC(NC(=O)NC2(CCO)CCC2)CC1` were, in that order, -7% and 1.37.
Taken in the same sequence, the figures for `C[C@H]1C[C@@H](C(F)(F)F)n2ncc(C(=O)N(C)[C@H]3CCC[C@@H]3O)c2N1` were 1% and -0.1.
As to `Cc1ccnn1CC(=O)N1C[C@H]2CC[C@@H](C1)N(CC1CCC1)C2`, the “% Inhibition” value was -19% and the Z score is 1.87.
For the compound `CCN(CC)c1ccc(C(=O)N2CCC(n3cc(-c4nc(C(C)C)no4)nn3)CC2)cc1`, the “% Inhibition” value was -9% and the Z score came to 1.03.
For `C[C@@H](C(=O)Nc1ccccc1-c1ccccc1)N1CCCC1`, the “% Inhibition” value was 14% and the Z score is -1.74.
The like results for `CC(C)[C@H]1COC(=O)N1CC(=O)N(Cc1ccccc1)C1CCCC1` were, in that order, 14% and -1.98.
On to `Cc1c(C(=O)N2CCC(C)CC2)c(S(=O)(=O)N2CCc3ccccc3C2)c(C)n1C`, for which the “% Inhibition” value amounted to 6% and the Z score was -1.01.
`CN(C)c1ccc(C(=O)NCc2ccc3c(c2)CCN3C(=O)c2ccccc2)cc1`: the “% Inhibition” value was -14% and the Z score is 2.57.
`N#Cc1ccncc1N1CCC[C@H](F)C1`: the “% Inhibition” value is -1% and the Z score amounted to 0.18.
In the case of `Cc1cccc(OCC(=O)N2C[C@H](C3CC3)[C@@H](N)C2)c1`, the “% Inhibition” value worked out at 5% and the Z score is recorded as -0.94.
The like results for `CNS(=O)(=O)NC1CCN([C@@H](C)C(=O)N(C)Cc2cccc(F)c2)CC1` were, in that order, -6% and 0.66.
The like results for `CCc1nc(NC(=O)CN2CCO[C@H](c3cccs3)C2)sc1C` were, in that order, -10% and 0.91.
The like results for `Cc1cccc(NC(=O)CC(=O)NCC2(Cn3nc(C)cc3C)CC2)c1` were, in that order, 8% and -1.62.
For the compound `COC[C@H](C)NC(=O)NCc1cccs1`, the “% Inhibition” value was -6% and the Z score amounted to 0.77.
With `CCCn1cc(CN2CCN(CC3CCCCC3)[C@@H](CCO)C2)c(C)n1`, the “% Inhibition” value is -14% and the Z score stood at 2.02.
The like results for `CCOC(=O)C1CCN(C(=O)CN2C(=O)COc3ccc(C(=O)N(C)C)cc32)CC1` were, in that order, -8% and 1.04.
In the case of `O=C(c1ccccn1)N1CCCC[C@H]1c1nncn1CC1CC1`, the “% Inhibition” value is -5% and the Z score is listed as 0.85.
With `Cc1nc(C)c(C(=O)O[C@@H](C)CCn2cccn2)s1`, the “% Inhibition” value was -1% and the Z score is reported as 0.1.
As for `CC(C)CN(Cc1ccsc1)S(=O)(=O)N1CCCC1`, the “% Inhibition” value is listed as 6% and the Z score is -1.09.
Taken in the same sequence, the figures for `O=C(NC[C@H]1CCCN1CC(F)(F)F)c1cc[nH]c(=O)c1` were -12% and 1.83.
With `C[C@H]1COCCN1C(=O)C1=CCCCO1`, the “% Inhibition” value was -14% and the Z score was 1.49.
The like results for `Cc1c(C(=O)N(CC(=O)OC(C)(C)C)C(C)C)nnn1-c1cccc2ncccc12` were, in that order, 15% and -1.76.
The like results for `CN(CCC(=O)Nc1cccc(Br)c1)S(C)(=O)=O` were, in that order, -14% and 1.46.
The like results for `CCO[C@H]1COC[C@@H]1n1cc(-c2ccc3c(c2)OCCO3)nn1` were, in that order, -12% and 2.23.
With `Cc1nc2c3ccccc3nc(CCN3C(=O)c4ccccc4N4C(=O)CC[C@]34C)n2n1`, the “% Inhibition” value is recorded as -13% and the Z score is on record as 1.84.
